Source: the RNAGym collection of RNA variant scans (doi:10.7554/elife.90254)
The source gives no read counts; variants with many changes may rest on few reads.

B1: LINE1-mini (parent)
chain: GGCAGAGCUCAACACAGCGUGGCAAAGUGGCUGUGGCUAGACUGCC

Variants of: B1
Test: self-cleavage, relative activity (ratio to wild type); higher = more cleavage; in vitro, sequencing; the parent is a self-cleaving ribozyme

Row | Variant | self-cleavage
1 | A4G G19U A41C C46G | 0.04
2 | A4U G7C U32A G40A | 0.05
3 | A4U G7C U20A G22U U28G G35U | 1.81
4 | A4G C15G U20A G27A C42U | 0.05
5 | A4G G21C G29U | 0.27
6 | A4G C42U C46A | 0.02
7 | A4U G5A C8A C46U | 0.85
8 | A4G G17C G36A U38C | 0.01
9 | A4G G5A G7A C18A | 0.05
10 | A4U A11G G40C | 0.05
11 | A4U G21U G22A G27A G29U | 0.84
12 | A4G U9G C18U C31A C42A | 0.12
13 | G5A A6C A39U | 1.65
14 | A4U G21C G22A G33A U38A C45A | 0.01
15 | A4G G21A G27U U28G G36C | 0.02
16 | A4U G21C C23G A26U G36A | 0.08
17 | A4U A14U A16U G19U A24G | 0.02
18 | A4U U20G G21U G29A C45U | 0.14
19 | A4G G17U G40A C42G | 0.28
20 | A4U C8G G33A C37G | 0.05
21 | A4U A6G C15G G27C G36C U38A G40A | 0.22
22 | A4G G5A A41C | 0.07
23 | A4G C23A U32A | 0.51
24 | A4G G17C U20C | 0.31

Row | Variant | self-cleavage
25 | A4G G22U G36A C37G | 0.01
26 | A4U C10G C42G | 0.01
27 | A4G G7U G36U | 0.05
28 | A4G G40U C46G | 0
29 | A4G U20A C31A A39U | 0
30 | A4G G17U A26U G27U | 0.16
31 | A4G G21C A25U G27C U32A C42G | 0.01
32 | G5A A6G C8U A16C G22A G27U | 0.05
33 | A4U C10U A12G A25U | 0.01
34 | A4U A26C G30U G33A | 0.09
35 | G5A A6U C18U G19C U38G A39U G40U | 0.08
36 | A4U G17C G35C U38A | 0.18
37 | A4U G7A U9G C42U | 0.08
38 | A4U A6U C18U U38A G40A U43A G44U | 0.06
39 | A4G G17A C18U G22C U34C | 0.07
40 | A4U G33A C46U | 0.05
41 | A4U C15A G33A A39U G40C | 0.01
42 | A4U C23G U38C C46A | 0.01
43 | A4U G5C A24G C42G | 0.01
44 | A4G G5C G40C | 0.12
45 | A4U A6C A14C U20A G21C | 0.01
46 | G5A A11C C18A | 0.05
47 | A4G G5A A24U G29U | 0.03
48 | A4G G29C C45U | 0.31

Row | Variant | self-cleavage
49 | G5A A6C C8A G40A | 0.15
50 | A4U A6U C31A C37U | 0.08
51 | A4G G22A U32C | 0.22
52 | A4U C10G C15U U20A G30U G33U | 0.02
53 | A4U A11G G44C | 0.02
54 | A4G G36U C37U U38A | 0.04
55 | A4G G7A A16G C37G G40A G44U | 0.05
56 | A4U A26C G30U | 0.13
57 | A4U C18U G19C G29A A39C | 0.05
58 | A4G G29U C42A G44U | 0
59 | A4U G7A G19C | 0.22
60 | A4U C15A A26G A39U | 0.04
61 | G5A A11G A14U G21U C23U | 0.02
62 | A4G C37U A41U U43C | 0.12
63 | A4U U28C A41U | 0.23
64 | A4U C13G C18G | 0.05
65 | A4G U20G G40C | 0.21
66 | A4U C13U U20A | 0.02
67 | A4G U9A A11G C23A | 0.01
68 | A4U G5A G7C C15U C18U U38G | 0.03
69 | A4U U32A G40C | 0.02
70 | A4G G30A A41C | 0.02
71 | A4G G33U A39G C46G | 0.04
72 | A4G G19U A26C G35U | 0.04

Row | Variant | self-cleavage
73 | A4G G29A G35A C37U U43G G44A | 0.01
74 | A4G G21U G30A | 0.38
75 | A4G G19C C37A | 0
76 | A4U U28A A41G C45A | 0.01
77 | A4G C15G U38A | 0.01
78 | A4G G5A U28A | 0.03
79 | A4G G7C A16C A39C A41U C46G | 0.04
80 | A4G G5A A6C U9C G19U C31G | 0.01
81 | A4G C18G C23A A39C | 0.04
82 | A4G G22C G27A U43A | 0.03
83 | A4U C8G C45A | 0
84 | A4U G5C A11G G33A | 0.05
85 | A4G G7C C8A U20A U38G A39G | 0.03
86 | A4G U32C G36A C42G | 0.03
87 | A4U A12C C13U C18G | 0.03
88 | A4U C8G G30C U34C | 0.05
89 | A4G C31U C46U | 0.03
90 | A4U U20G G30A U34G | 0.02
91 | G5A A6U U9A C13A U20C U28A G33U C45G | 0.03
92 | A4U C8A C46U | 0.18
93 | A4U A12U G29U G35U | 0.14
94 | A4U C8G U43C | 0.02
95 | A4U G5A A6G U20A | 0.01
96 | A4U A6U U9A C31A | 0.06

Row | Variant | self-cleavage
97 | G5A A6C U34G | 0.03
98 | A4U G17A U28G | 0.04
99 | A4G U9C C31G | 0.01
100 | A4U C8G U28C G36A | 0.01
101 | A4U A6U U28C | 0.02
102 | A4U G17A G21U C42G | 0.05
103 | G5A A6C C10G C23U G29C | 0.02
104 | G5A A6G U28A G33U | 0.07
105 | A4G G29U C37A | 0.04
106 | A4G U20G C37U A39G | 0
107 | A4U C13G A14G G35A | 0.05
108 | A4G U9A A25G G30A G36A C37G | 2.42
109 | A4U C8A G21U A26C U28C G29U | 0.07
110 | A4U A26C U34A | 0.17
111 | A4U U9C A24U A41G | 0.02
112 | A4G U20A G21A G22U A25G C46A | 0.74
113 | A4U G21A A25G G35U | 0.18
114 | A4U U38A U43C | 0
115 | A4U A6C C45A | 0.05
116 | A4G G7A G33U C46G | 0.26
117 | A4U A14G G30A C31A U34A | 0.17
118 | A4U G7U A12U G19A G36A | 0.04
119 | A4U G7U C31G | 0.08
120 | A4G C42G G44U | 0.04

Row | Variant | self-cleavage
121 | A4U G17C U20G | 0.04
122 | A4U C8A A12U | 0.14
123 | A4U C15U U32C | 0.1
124 | A4U A25G G33C | 0.02
125 | A4U G17A C31A A39C | 0
126 | A4U A12U G17U U32A | 0.02
127 | G5A A6G A39U | 0.05
128 | A4G C18G A24G G29U | 0.13
129 | A4U C13G A14G G22A | 0.03
130 | A4G G40C C46A | 0.07
131 | A4U C13G C23U | 0.32
132 | A4G C15G G22C G44A | 0.36
133 | A4G G7A C13G G17U G21U C37G A39U | 0.01
134 | A4U A6U G29U U32A C42A | 0.14
135 | A4U C8A C13U C45G C46U | 0.18
136 | A4G G19U C42U G44C | 0.11
137 | A4G G5U A14G U34A | 0.12
138 | A4U G5A C10U G22U | 0.02
139 | A4U A6U C46G | 0.2
140 | G5A A11C C46G | 0.03
141 | A4U A14U G19U | 0.12
142 | A4G C18A G22C A26C | 0.08
143 | A4U G5U G7A | 0.4
144 | A4U A6C A11C G19A C23U G35C C37G | 0.02

Row | Variant | self-cleavage
145 | A4U C8U C10A G19A U32C C42U | 0.02
146 | A4U C18G G19U A26U | 0.32
147 | A4U C13A A25C G30U C31A G33U C46G | 0.03
148 | A4G G17C A24U A41U | 0.04
149 | A4U G5U C10U A16G G19A U34A G40U | 0.01
150 | A4U A12U U34G | 0.09
151 | G5A A6G U32C | 0.03
152 | A4G G5U G17C G21C G33C | 0.05
153 | A4U G19C U20G | 0.06
154 | A4G U9A C15G G27A C46G | 0.08
155 | A4G C15U G33C C46A | 0.08
156 | A4G G7A G29C A39C | 0.05
157 | A4G G7U A14C G29U | 0.04
158 | A4U C15A G35C C42U G44U C45U C46A | 0.01
159 | A4U G27C G40U | 0.07
160 | A4U G22A U34A C37G | 0.11
161 | A4U C13A A16U G21U A24U G29A U32G G35U | 0.15
162 | A4G U9A A14U C18G G35C G44C | 0.01
163 | A4U G7A A11G | 0.03
164 | A4U U20G U32C U34A G35U G44A | 0.03
165 | A4G U20G C42G | 0.01
166 | A4G G29A G30A C46U | 1.06
167 | A4U A6G G27A C31U C42G C45U | 0.03
